# Reference: PubChem BioAssay (NCATS)
# The shares of active, inactive and inconclusive entries below differ from those in the screen. Potencies of inconclusive entries are left out as doubtful fits. Activity calls are given as the source filed them. Calls come from the whole dose curve; as a rule, active = well fitted cell-killing curve with a large enough effect; inconclusive = small, poorly fitted or top-dose-only effect, or effect the other way; inactive = no such curve, though single readings can be large or run the other way.
# Assay: qHTS of pediatric cancer cell lines to identify multiple opportunities for drug repurposing: Confirmatory screen for NB1643 cells (AID 1347109); note: nearly all actives have a fitted effect of over 45% in size
# Details: NB1643 neuroblastoma cell viability; series mostly up to 45.9 µM
# Text: Drug repurposing or repositioning has been offered as a strategy for drug development in oncology programs. This approach has special potential for childhood cancers and other rare or orphan diseases, where the expected return on new drug development has been a disincentive to pharmaceuticals.
# In this project we exploit the poly-pharmacology of drugs to discover new indications via phenotypic screening of a panel of 19 well-characterized cell lines derived from solid tumors seen in children and adolescents. The goal is to identify approved drugs with previously unrecognized anticancer properties that has the potential to reveal new mechanisms and biological processes involved in carcinogenesis or drug resistance. We employed a titration-based paradigm (quantitative high-throughput screening or qHTS), where all compounds were tested at multiple concentrations for their effect on cell viability. Concentration-response curves (CRCs) were derived directly from the primary screen, and both potency and efficacy values were used to identify compounds with robust bioactivity profiles. We screened the NIH Chemical Genomics Center (NCGC) Pharmaceutical Collection (NPC) and Mechanism Interrogation Plate (MIPE) small molecule collections of approved and investigational compounds against these cell lines; and measured metabolically active cells after 48 hours of compound treatment as a proxy for cell viability.
# Assay Submitter: Nathalia J. Martinez, National Center for Advancing Translational Sciences, National Institutes of Health, Rockville, MD, USA; email: natalia.martinez@nih.gov
# [1] Shen, M et al. Quantitative high-throughput phenotypic screening of pediatric cancer cell lines identifies multiple opportunities for drug repurposing. Oncotarget 2017 Dec 19;9(4):4758-4772. PMID 29435139.
# The cells were obtained from University of North Carolina (UNC), Pediatric Preclinical Testing Program (PPT), and Coriell Institute (CI).
# qHTS cell viability assay:
# Cells were assayed in growth media at a density of 500-1,000 cells/well. Five microliters of cells were dispensed into 1,536-well, white, solid-bottom, TC-treated plates (Greiner Bio One) using a multidrop dispenser and incubated at 37 degrees C, 5% CO2, under a humidified atmosphere for 5 hours. Twenty-three nanoliters of compounds and controls (neutral control DMSO or positive control bortezomib at final concentration of 2.3 µM) were subsequently transferred by Kalypsys pintool. For primary screens, the MIPE collection was tested at 11-point dilutions (final concentrations range from 0.78 nM to 46 µM) and the NPC collection at 8-point dilutions (final concentrations range from 0.59 nM to 46 µM). Compounds tested in follow-up screens were assayed at 11-point dilutions. Cells were incubated for 48 hours, followed by addition of 3 µL of CellTiter-Glo (Promega). After a 15 min incubation at room temperature, samples were analyzed for luminescence intensity using a ViewLux High-throughput CCD imager equipped with clear filters.
# Potency is the fitted concentration of half-maximal effect; tags give direction and shape of the fitted curve.
row,SMILES,Potency
1,Cc1nc(Nc2ncc(C(=O)Nc3c(C)cccc3Cl)s2)cc(N2CCN(CCO)CC2)n1,"inconclusive [cytotoxic, full curve, poor fit]"
2,O=C(NCc1ccncc1)C12C[C@H]3C[C@@H](C1)CC(c1ccc(Cl)cc1)(C3)C2,"inconclusive [cytotoxic, single point]"
3,CC(S)C(=O)NCC(=O)O (stereo not given),inactive
4,CCOc1cc(CC(=O)N[C@@H](CC(C)C)c2ccccc2N2CCCCC2)ccc1C(=O)O,inactive
5,O=C1c2c(O)cc(O)cc2OC(c2ccc(O)c(O)c2)C1O (stereo not given),inactive
6,Cc1nc(Nc2n[nH]c3c2CN(C(=O)N[C@H](CN(C)C)c2ccccc2)C3(C)C)c2sccc2n1,"inconclusive [cytotoxic, partial curve, poor fit]"
7,CC(C)NCC(O)c1ccc(NS(C)(=O)=O)cc1 (stereo not given),inactive
8,c1cnc2cc3c(cc2n1)C1CNCC3C1,inactive
9,O=C(NC1CC1)c1cccc(-c2ccc3c(NC(=O)C4CC4)n[nH]c3c2)c1,"inconclusive [cytotoxic, full curve, poor fit]"
10,CC[C@H](NC(=O)[C@H](C)NC)C(=O)N1C[C@@H](O)C[C@H]1Cc1c(-c2[nH]c3cc(F)ccc3c2C[C@H]2C[C@H](O)CN2C(=O)[C@H](CC)NC(=O)[C@H](C)NC)[nH]c2cc(F)ccc12,"inconclusive [cytotoxic, full curve, poor fit]"
11,O=c1[nH]cnc2c1ncn2[C@H]1CC[C@@H](CO)O1,inactive
12,COc1ccc2c(Oc3ccc(NC(=O)c4c(C)n(CC(C)(C)O)n(-c5ccccc5)c4=O)cc3F)ccnc2c1,inactive
13,CNC1CCC(N(Cc2cccc(-c3ccncc3)c2)C(=O)c2sc3c(F)ccc(F)c3c2Cl)CC1 (stereo not given),"inconclusive [cytotoxic, single point]"
14,CCOc1ccc(Nc2nc(-c3c(C)nc4ccccn34)cs2)cc1,"inconclusive [cytotoxic, full curve]"
15,COc1cc([C@@H]2c3cc4c(cc3[C@H](O)[C@H]3COC(=O)[C@@H]23)OCO4)cc(OC)c1OC,"inconclusive [cytotoxic, full curve]"
16,CN(C)c1ccc(C2Nc3ccc4ccccc4c3C3=C2C(=O)CC(C)(C)C3)cc1Br (stereo not given),"inconclusive [cytotoxic, partial curve, poor fit]"
17,COc1cc2c(cc1Cc1cccc(Cl)c1F)c(=O)c(C(=O)O)cn2[C@H](CO)C(C)C,"inconclusive [cytotoxic, single point]"
18,CCC(C)n1ncn(-c2ccc(N3CCN(c4ccc(OC[C@H]5CO[C@](Cn6cncn6)(c6ccc(Cl)cc6Cl)O5)cc4)CC3)cc2)c1=O (stereo not given in full),inactive
19,CCC[C@H](N[C@@H](C)C(=O)N1[C@@H]2CCCC[C@H]2C[C@H]1C(=O)O)C(=O)OCC,inactive
20,O=C(O)c1ccc(-c2cc3cccnc3c(-c3ccc4nonc4c3)n2)cc1,"inconclusive [cytotoxic, partial curve]"

row,SMILES,Potency
1,CC[C@@H]1C=C(C)C[C@H](C)C[C@H](OC)[C@H]2O[C@@](O)(C(=O)C(=O)N3CCCC[C@@H]3C(=O)O[C@H](C(C)=C[C@@H]3CC[C@H](Cl)[C@H](OC)C3)[C@H](C)[C@@H](O)CC1=O)[C@H](C)C[C@H]2OC,"inconclusive [cytotoxic, single point]"
2,CC(C)n1c(C=C[C@H](O)C[C@H](O)CC(=O)O)c(-c2ccc(F)cc2)c2ccccc21,"inconclusive [cytotoxic, partial curve]"
3,CN1N=C(N)c2cn([C@@H]3O[C@H](COP(=O)(O)O)[C@@H](O)[C@@H]3O)c3ncnc1c23,"inconclusive [cytotoxic, full curve]"
4,Nc1ccn([C@@H]2O[C@H](CO)[C@@H](O)[C@H]2O)c(=O)n1,"inconclusive [cytotoxic, partial curve]"
5,CCC(=O)OCC(=O)[C@@]1(OC(=O)CC)[C@@H](C)C[C@@H]2[C@H]3CCC4=CC(=O)C=C[C@]4(C)[C@@]3(F)[C@@H](O)C[C@@]21C,inactive
6,Cc1ccc2c(c1)C(=O)[C@]1(O)CCN(c3ccccc3)C1=N2,"inconclusive [cytotoxic, full curve]"
7,CCCOc1ccc2nc(NC(=O)OC)[nH]c2c1,"inconclusive [cytotoxic, full curve]"
8,CC(CCc1ccc(O)cc1)NCCc1ccc(O)c(O)c1 (stereo not given),inactive
9,CN(C)CC[C@H](CSc1ccccc1)Nc1ccc(S(=O)(=O)NC(=O)c2ccc(N3CCN(Cc4ccccc4-c4ccc(Cl)cc4)CC3)cc2)cc1[N+](=O)[O-],active: 0.414 µM
10,NC12CC3CC(CC(C3)C1)C2,inactive
11,CC(C)n1nc(-c2ccc3oc(N)nc3c2)c2c(N)ncnc21,"inconclusive [cytotoxic, partial curve, poor fit]"
12,COc1ccc(C(=O)CC(=O)c2ccc(C(C)(C)C)cc2)cc1,inactive
13,CC(C)(C)c1[nH]cnc1C=c1[nH]c(=O)c(=Cc2ccccc2)[nH]c1=O,active: 0.0114 µM
14,CCCC1OC2C[C@@H]3[C@H]4CCC5=CC(=O)C=C[C@]5(C)[C@H]4C(O)C[C@]3(C)[C@]2(C(=O)CO)O1 (stereo not given in full),"inconclusive [cytotoxic, full curve, poor fit]"
15,CC1CC2C3CCC4=CC(=O)C=C[C@]4(C)[C@@]3(F)[C@@H](O)C[C@]2(C)[C@@]1(O)C(=O)CO (stereo not given in full),"inconclusive [rising, partial curve]"
16,CCc1nc(N)nc(N)c1-c1ccc(Cl)cc1,"inconclusive [cytotoxic, full curve]"
17,COc1cc(C(C)=O)ccc1OCCCN1CCC(c2noc3cc(F)ccc23)CC1,inactive
18,CC(C)C[C@H](NC(=O)[C@H](CCc1ccccc1)NC(=O)CN1CCOCC1)C(=O)N[C@@H](Cc1ccccc1)C(=O)N[C@@H](CC(C)C)C(=O)[C@@]1(C)CO1,"inconclusive [cytotoxic, full curve]"
19,CN1CCN(CCCN2c3ccccc3Sc3ccc(Cl)cc32)CC1,"inconclusive [cytotoxic, partial curve, poor fit]"
20,CCCCCCCCCCCC1=C(O)C(=O)C=C(O)C1=O,inactive
